Experimental data taken from PubChem BioAssay (NCATS).
“And” between values parts separate entries of the source, which are not always exact repeats. Equal values may be shown once. Inconclusive means that the source gave no clear call. Such entries were picked first, then a sample of the others. Where the call is inconclusive, the potency comes from a doubtful curve fit. The source made the active and inactive calls. Calls follow the shape of the dose curve; as a rule, active = well fitted cell-killing curve with a large enough effect; inconclusive = small, poorly fitted or top-dose-only effect, or effect the other way; inactive = no such curve, though single readings can be large or run the other way.

Assay: Viability qHTS for spleen associated tyrosine kinase inhibitor (SYKi) naive MV4-11 cells (AID 1963823); also: nearly all actives have a fitted effect of over 40% in size
Conditions: MV4-11 AML viability, CellTiter-Glo luminescence, 72 h; series mostly up to 45 µM
Procedure, shortened: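 Seeding of 500 SYKi-naive MV4-11 cells per well onto pre-dispensed compounds preceded a 72 hr incubation at 37 C. Luminescent CellTiter-Glo signal, read after 10 min at room temperature, reflected viable cells.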
Potency is read from the fitted curve at half-maximal effect; tags tell the direction and shape of the fitted curve.

Row | SMILES | Potency
1 | O=[N+]([O-])c1ccc(-c2nc(-c3ccc(F)cc3)c(-c3ccncc3)[nH]2)cc1 | inconclusive: 6.51 µM [cytotoxic, single point] and active: 14.8 µM and active: 5.17 µM
2 | CC(C)=CCCC1(C)/C=C/C(OC(=O)C=C(C)C)C(C)(O)/C=C/C(=O)/C(CO)=C\C1 (stereo unspecified) | active: 1.59 µM
3 | COc1ccccc1-c1nc(SCC(=O)Nc2ccc(C)c(C)c2)n[nH]1 | inconclusive: 18.4 µM [cytotoxic, partial curve]
4 | O=C(Nc1ccc(Cl)cc1)c1ccccc1NCc1ccncc1 | inconclusive: 14.6 µM [cytotoxic, partial curve]
5 | C[C@@H]1CC(=O)Nc2cccc(-c3cnn(C(C)(C)C)c3)c2N1 | active: 14.8 µM
6 | CC/C=C\CCO[C@@H]1O[C@H](CO[C@@H]2OC[C@H](O)[C@H](O)[C@H]2O)[C@@H](O)[C@H](O)[C@H]1O | inactive
7 | NCC1CCN(c2nccc(-c3ccc4ccccc4c3)n2)CC1 | active: 1.16 µM
8 | COC(=O)C12C(=O)C(C)=C(O)C1(C)C(C)=CC1C3(CO)CCC(O)C(C)(C)C3CCC12C (stereo unspecified) | inactive
9 | COc1ccccc1N1CCN(CC[C@@](C)(C(=O)C2CCCCC2)c2ccccc2)CC1 | inconclusive: 11.6 µM [cytotoxic, partial curve]
10 | O=C(OC[C@H]1O[C@H](O[C@]2(CO)O[C@H](CO)[C@@H](O)[C@@H]2O)[C@H](O)[C@@H](O)[C@@H]1O)c1ccc(O)cc1 | inactive
11 | COc1cc(CCc2cc(NC(=O)c3ccc(N4CC(C)NC(C)C4)cc3)n[nH]2)cc(OC)c1 (stereo unspecified) | active: 0.82 µM
